For this data set, the system named is TZM-bl cells. Nature of the data set: Cytotoxicity. Type of data set: cell-based. The note with it: compared with NBD-14113.

With `Cc1nc(C(CN)NC(=O)c2ccc(-c3ccc4c(c3)OCO4)[nH]2)sc1CO` (stereo not shown) [NBD-14110, N-(2-amino-1-(5-(hydroxymethyl)-4-methylthiazol-2-yl)ethyl)-5-(benzo[d][1,3]dioxol-5-yl)-1H-pyrrole-2-carboxamide], the “improvement in cytotoxicity (CC50) compared with the control” value was ~ 1.7 fold.

These data come from PMC6446940 (ChemMedChem, 2018).
